Assay results from the antibiotic and cytotoxicity screens of Wong et al. (2023).
The other results are listed elsewhere or left out.

What was measured:
HSkMC = human skeletal muscle cells; assay: cytotoxicity call (relative viability < 0.9); settings: 10 µM
HepG2 = assay: cytotoxicity call (relative viability < 0.9); settings: 10 µM
S. aureus RN4220 = assay: growth inhibition call (relative growth <= 0.2); settings: 50 µM

Compound | cytotoxicity call (HSkMC) | cytotoxicity call (HepG2) | growth inhibition call (S. aureus RN4220)
C[C@@H]1CCCCO[C@@H](CN(C)Cc2ccncc2)[C@@H](C)CN([C@H](C)CO)C(=O)c2cc(NC(=O)Nc3ccc(F)cc3)ccc2O1 | inactive | inactive | inactive
COc1ccc(NC(=O)N(C)C[C@H]2OCCCC[C@@H](C)Oc3ccc(NC(=O)Nc4ccccc4)cc3C(=O)N([C@H](C)CO)C[C@@H]2C)cc1 | inactive | active | inactive
C[C@H](CO)N1C[C@H](C)[C@@H](CN(C)S(=O)(=O)c2cccs2)Oc2ccc(NC(=O)Nc3cccc4ccccc34)cc2C1=O | inactive | inactive | inactive
C[C@@H]1CN([C@@H](C)CO)C(=O)c2cc(NC(=O)c3ccccc3)ccc2O[C@@H](C)CCCCO[C@H]1CN(C)Cc1ccc2c(c1)OCO2 | inactive | inactive | inactive
C[C@@H]1CN([C@H](C)CO)C(=O)Cc2cc(NC(=O)Cn3cnnn3)ccc2O[C@@H]1CN(C)S(=O)(=O)c1ccccc1 | inactive | inactive | inactive
Cc1noc(C)c1NC(=O)Nc1ccc2c(c1)C(=O)N([C@@H](C)CO)C[C@H](C)[C@@H](CN(C)C(=O)Nc1ccc(C(F)(F)F)cc1)OCCCC[C@@H](C)O2 | inactive | inactive | inactive
CC(C)NC(=O)N(C)C[C@@H]1Oc2c(NC(=O)C3CCOCC3)cccc2C(=O)N([C@@H](C)CO)C[C@@H]1C | inactive | inactive | inactive
O=C1CN(S(=O)(=O)Cc2ccccc2)C[C@@H]2[C@H](c3ccc(C#Cc4ccc(F)cc4)cc3)[C@@H](CO)N12 | inactive | inactive | inactive
